Assay results published in the supplement of paper PMC5740061.
Some of the results follow. Most values come without repeats; read them as rough.

B1: TB1G1 variant; numbered along this chain (parent)
chain: PDEYIERAKECCKKGDIQCCLRYFEESGDPNVMLICLFCP

Variants of: B1
Assay: TEAD binding enrichment after two sorts vs input, relative to TB1G1 (log2 fold-change); higher = improved TEAD binding
Details: with TEAD1 YAP-binding domain (194-411), TEAD concentration: 20 nM, staining: monovalent 2-step

Row | Variant | TEAD binding enrichment (log2)
1 | PDEYIELAKECCKKGDIQCCLRYFEESGDPNVMLICLFCP [R7L] | -0.388
2 | PDEYIEAAKECCKKGDIQCCLRYFEESGDPNVMLICLFCP [R7A] | 0.283
3 | PDEYIETAKECCKKGDIQCCLRYFEESGDPNVMLICLFCP [R7T] | -4.07
4 | PDEYIEPAKECCKKGDIQCCLRYFEESGDPNVMLICLFCP [R7P] | -2.49
5 | PDEYIEKAKECCKKGDIQCCLRYFEESGDPNVMLICLFCP [R7K] | 0.473
6 | PDEYVERAKECCKKGDIQCCLRYFEESGDPNVMLICLFCP [I5V] | -0.274
7 | PDEYYERAKECCKKGDIQCCLRYFEESGDPNVMLICLFCP [I5Y] | -10.9
8 | PDEYWERAKECCKKGDIQCCLRYFEESGDPNVMLICLFCP [I5W] | -7.46
9 | PDEYRERAKECCKKGDIQCCLRYFEESGDPNVMLICLFCP [I5R] | -3.27
10 | PDEYQERAKECCKKGDIQCCLRYFEESGDPNVMLICLFCP [I5Q] | -1.23
11 | PDEYPERAKECCKKGDIQCCLRYFEESGDPNVMLICLFCP [I5P] | -0.431
12 | PDEYDERAKECCKKGDIQCCLRYFEESGDPNVMLICLFCP [I5D] | -3.47
13 | PDEYMERAKECCKKGDIQCCLRYFEESGDPNVMLICLFCP [I5M] | -1.87
14 | PDEYNERAKECCKKGDIQCCLRYFEESGDPNVMLICLFCP [I5N] | -1.34
15 | PDEYFERAKECCKKGDIQCCLRYFEESGDPNVMLICLFCP [I5F] | -8.36
16 | PDEYTERAKECCKKGDIQCCLRYFEESGDPNVMLICLFCP [I5T] | -1.77
17 | PDEYAERAKECCKKGDIQCCLRYFEESGDPNVMLICLFCP [I5A] | -1.2
18 | PDEYEERAKECCKKGDIQCCLRYFEESGDPNVMLICLFCP [I5E] | -1.23
19 | PDEYLERAKECCKKGDIQCCLRYFEESGDPNVMLICLFCP [I5L] | -0.381
20 | PDEYSERAKECCKKGDIQCCLRYFEESGDPNVMLICLFCP [I5S] | -2.04
21 | PDEYKERAKECCKKGDIQCCLRYFEESGDPNVMLICLFCP [I5K] | -1.5

Row | Variant | TEAD binding enrichment (log2)
22 | PDEYIVRAKECCKKGDIQCCLRYFEESGDPNVMLICLFCP [E6V] | -1.55
23 | PDEYISRAKECCKKGDIQCCLRYFEESGDPNVMLICLFCP [E6S] | -1.09
24 | PDEYIWRAKECCKKGDIQCCLRYFEESGDPNVMLICLFCP [E6W] | -1.53
25 | PDEYIRRAKECCKKGDIQCCLRYFEESGDPNVMLICLFCP [E6R] | -1.78
26 | PDEYIMRAKECCKKGDIQCCLRYFEESGDPNVMLICLFCP [E6M] | -2.04
27 | PDEYIHRAKECCKKGDIQCCLRYFEESGDPNVMLICLFCP [E6H] | -1.57
28 | PDEYIIRAKECCKKGDIQCCLRYFEESGDPNVMLICLFCP [E6I] | -1.56
29 | PDEYIQRAKECCKKGDIQCCLRYFEESGDPNVMLICLFCP [E6Q] | -2.41
30 | PDEYIFRAKECCKKGDIQCCLRYFEESGDPNVMLICLFCP [E6F] | -1.96
31 | PDEYIPRAKECCKKGDIQCCLRYFEESGDPNVMLICLFCP [E6P] | -2.84
32 | PDEYIGRAKECCKKGDIQCCLRYFEESGDPNVMLICLFCP [E6G] | -1.15
33 | PDEYIARAKECCKKGDIQCCLRYFEESGDPNVMLICLFCP [E6A] | -0.676
34 | PDEYINRAKECCKKGDIQCCLRYFEESGDPNVMLICLFCP [E6N] | -0.816
35 | PDEYIYRAKECCKKGDIQCCLRYFEESGDPNVMLICLFCP [E6Y] | -2.33
36 | PDEYITRAKECCKKGDIQCCLRYFEESGDPNVMLICLFCP [E6T] | -0.921
37 | PDEYILRAKECCKKGDIQCCLRYFEESGDPNVMLICLFCP [E6L] | -0.404
38 | PDGYIERAKECCKKGDIQCCLRYFEESGDPNVMLICLFCP [E3G] | -0.623
39 | PDHYIERAKECCKKGDIQCCLRYFEESGDPNVMLICLFCP [E3H] | -0.307
40 | PDPYIERAKECCKKGDIQCCLRYFEESGDPNVMLICLFCP [E3P] | -0.402
41 | PDMYIERAKECCKKGDIQCCLRYFEESGDPNVMLICLFCP [E3M] | 2.57
42 | PDAYIERAKECCKKGDIQCCLRYFEESGDPNVMLICLFCP [E3A] | -2.02

Row | Variant | TEAD binding enrichment (log2)
43 | PDNYIERAKECCKKGDIQCCLRYFEESGDPNVMLICLFCP [E3N] | 0.579
44 | PDWYIERAKECCKKGDIQCCLRYFEESGDPNVMLICLFCP [E3W] | -1.4
45 | PDQYIERAKECCKKGDIQCCLRYFEESGDPNVMLICLFCP [E3Q] | -1.35
46 | PDIYIERAKECCKKGDIQCCLRYFEESGDPNVMLICLFCP [E3I] | -0.256
47 | PDRYIERAKECCKKGDIQCCLRYFEESGDPNVMLICLFCP [E3R] | -1.81
48 | PDKYIERAKECCKKGDIQCCLRYFEESGDPNVMLICLFCP [E3K] | -0.5
49 | PDVYIERAKECCKKGDIQCCLRYFEESGDPNVMLICLFCP [E3V] | -1.4
50 | PDLYIERAKECCKKGDIQCCLRYFEESGDPNVMLICLFCP [E3L] | 0.325
51 | PDEYIERTKECCKKGDIQCCLRYFEESGDPNVMLICLFCP [A8T] | -3.84
52 | PDEYIERLKECCKKGDIQCCLRYFEESGDPNVMLICLFCP [A8L] | -9.93
53 | PDEYIERSKECCKKGDIQCCLRYFEESGDPNVMLICLFCP [A8S] | -2.79
54 | PDEYIERRKECCKKGDIQCCLRYFEESGDPNVMLICLFCP [A8R] | -5.84
55 | PDEYIERYKECCKKGDIQCCLRYFEESGDPNVMLICLFCP [A8Y] | -3.35
56 | PDEYIERHKECCKKGDIQCCLRYFEESGDPNVMLICLFCP [A8H] | -7.27
57 | PDEYIERQKECCKKGDIQCCLRYFEESGDPNVMLICLFCP [A8Q] | -6
58 | PDEYIERMKECCKKGDIQCCLRYFEESGDPNVMLICLFCP [A8M] | -10.1
59 | PDEYIERFKECCKKGDIQCCLRYFEESGDPNVMLICLFCP [A8F] | -4.33
60 | PDEYIERDKECCKKGDIQCCLRYFEESGDPNVMLICLFCP [A8D] | -4.17
61 | PDEYIERNKECCKKGDIQCCLRYFEESGDPNVMLICLFCP [A8N] | -9.2
62 | PDEYIEREKECCKKGDIQCCLRYFEESGDPNVMLICLFCP [A8E] | -2.66
63 | PDEYIERVKECCKKGDIQCCLRYFEESGDPNVMLICLFCP [A8V] | -4.43
